Measurements published in PubChem BioAssay AID651687 (Broad Institute, 2012).
“And” between values parts separate entries of the source, which are not always exact repeats. Equal values may be shown once. The whole screen tested about 350,000 compounds, of which about 600 (0.17%) were called active. This list was built around the results that the source calls inconclusive (neither active nor inactive); the mix of calls is not that of the screen.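 Rule for the calls: active = every replicate shows inhibition of at least 40%; inconclusive = mean inhibition at least 40% but some replicate below; inactive = the rest.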

Experiment: inhibitors of PGC1a acetylation signal, primary screen, cell-based, U2OS, AlphaScreen, inhibitor mode (AID 651687);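 note: 0% = neutral control wells and 100% = positive control wells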
Settings: AlphaScreen anti-acetyl-lysine, at 15.6 µM, active compounds read high, with virally co-expressed GCN5 acetyltransferase

Q: With `CC(C)(C)OC(=O)NCCc1nnc(SCc2ccc(Cl)cc2)o1` as the compound, how does the inhibition read?
A: inconclusive: 41%

Q: For `Cc1cc(-c2c(C)[nH]n(-c3ccc(Cl)cc3)c2=O)n(-c2ccccc2)n1`, which inhibition is on record?
A: inconclusive: 42.3%

Q: With `O=C(CC(C(=O)O)c1c[nH]c2ccccc12)c1ccccc1` (stereo not given) as the compound, how does the inhibition read?
A: active: 81.2%

Q: With `Cc1cccc(CCN(CC(=O)NC(C)(C)C)C(=O)c2csnn2)c1` as the compound, how does the inhibition read?
A: inconclusive: 46.7%

Q: For `COc1ccc(S(=O)(=O)N(C)C[C@@H]2Oc3cc(Br)ccc3S(=O)(=O)N([C@H](C)CO)C[C@@H]2C)cc1`, which inhibition is on record?
A: inactive: -7.03% and inactive: -16.3%

Q: Which inhibition does the source give for `CCOC(=O)C1(CC2CCCCO2)CCN(C(=O)Nc2ccc(SC)cc2)CC1` (stereo not given) here?
A: inconclusive: 55.7%

Q: Which inhibition does the source give for `COc1ccc(OCCc2nnc(N)s2)cc1` here?
A: inconclusive: 43.1%

Q: For `Clc1ccccc1CN1CCSCC1`, which inhibition is on record?
A: active: 47.1%

Q: For `O=[N+]([O-])c1cc(-c2ncccn2)c([N+](=O)[O-])s1`, which inhibition is on record?
A: active: 60.7%

Q: For `CCOC(=O)c1ccc(NC(=O)Nc2ccc(F)cc2)cc1`, which inhibition is on record?
A: inconclusive: 45.3%

Q: With `C[C@H](CO)N1C[C@H](C)[C@H](CN(C)Cc2ccncc2)OCc2cn(nn2)CCCC1=O` as the compound, how does the inhibition read?
A: inconclusive: 59.4%

Q: Which inhibition does the source give for `COc1ccc(C2NC3=C(CCC3)C3(C#N)C(OC)(OC)N=C(N)C23C#N)cc1` (stereo not given) here?
A: inconclusive: 40.7%

Q: With `Cc1c(/C(O)=C2\C(=O)C(=O)N(CCCN(C)C)C2c2ccccc2)cnn1-c1ccccc1` (stereo not given) as the compound, how does the inhibition read?
A: active: 81.6%

Q: With `O=C(CSc1nc2ccccc2c(=O)n1CC1CCCO1)N1CCN(c2ccccc2)CC1` (stereo not given) as the compound, how does the inhibition read?
A: inconclusive: 42.5%

Q: With `COc1cc(CN2CCN(Cc3ccccc3C(F)(F)F)CC2)cc(OC)c1OC` as the compound, how does the inhibition read?
A: active: 63.3%

Q: With `CCOC(=O)C1CCN(C2=NC(=O)/C(=C/c3ccc(O)cc3)S2)CC1` as the compound, how does the inhibition read?
A: inconclusive: 40.5%

Q: With `COC(=O)/C=C/c1cnc2ccccc2c1` as the compound, how does the inhibition read?
A: inconclusive: 43%

Q: For `O=C(C[C@H]1CC[C@@H](NC(=O)c2cccnc2)[C@H](CO)O1)NCc1ccncn1`, which inhibition is on record?
A: inactive: -2.08%

Q: With `CCNc1nc(Oc2ccc(C#N)cc2)cc(C(F)(F)F)n1` as the compound, how does the inhibition read?
A: inconclusive: 41.5%

Q: Which inhibition does the source give for `CCCn1c(-c2ccccc2)cc(SC)c(C#N)c1=O` here?
A: active: 92.8%

Q: For `COc1ccc(-c2ccc(/C=N/NC(=O)Cc3nnc(N)s3)o2)cc1Cl`, which inhibition is on record?
A: active: 56.8%

Q: For `C[C@@H]1CN([C@@H](C)CO)S(=O)(=O)c2ccc(-c3ccc(F)cc3)cc2O[C@H]1CN(C)C(=O)C1CCCCC1`, which inhibition is on record?
A: inconclusive: 64.1%

Q: With `O=C(/C(=C/O)N=Nc1ccccc1)c1ccco1` as the compound, how does the inhibition read?
A: inconclusive: 42%

Q: Which inhibition does the source give for `O=C1Nc2c(Br)cc(Br)c3cccc1c23` here?
A: inconclusive: 40.4%

Q: With `C[C@@H]1CCCCO[C@@H](CN(C)C)[C@@H](C)CN([C@H](C)CO)C(=O)c2cc(NS(=O)(=O)c3ccc(Cl)cc3)ccc2O1` as the compound, how does the inhibition read?
A: inconclusive: 44.5%

Q: With `CCN(C(=O)COC(=O)/C=C/c1cccc(Cl)c1)c1c(N)n(Cc2ccccc2)c(=O)[nH]c1=O` as the compound, how does the inhibition read?
A: inconclusive: 42.2%

Q: For `COc1ccc(S(=O)(=O)Nc2ccc3c(c2)C(=O)N([C@@H](C)CO)C[C@H](C)[C@H](CN(C)S(=O)(=O)c2ccc(C)cc2)O3)cc1`, which inhibition is on record?
A: inactive: 3.26%

Q: For `O=C(NCc1cccnc1)C1CC(=O)N(C2CCCCC2)C1` (stereo not given), which inhibition is on record?
A: inconclusive: 44.3%

Q: Which inhibition does the source give for `O=C1c2ccccc2-c2c1cccc2C(=O)N1CCN(C(=O)c2ccco2)CC1` here?
A: inconclusive: 42.9%

Q: Which inhibition does the source give for `Clc1ccc(C[n+]2cc(-c3ccccc3)n3c2CCC3)cc1` here?
A: inactive: -17.2%

Q: With `CC(/C=C1\SC(=O)N(CCCC(=O)O)C1=O)=C\c1ccccc1` as the compound, how does the inhibition read?
A: inconclusive: 43%

Q: Which inhibition does the source give for `C[C@@H]1CN([C@H](C)CO)C(=O)c2cc(-c3ccccc3)cnc2O[C@@H]1CN(C)C(=O)Cc1ccccc1` here?
A: inconclusive: 42%

Q: Which inhibition does the source give for `CCCCCCC[C@@H](C/C=C/CCC(=O)O)OC` here?
A: inconclusive: 45.2%

Q: With `Cc1nc2ncnn2c(C)c1CCC(=O)N1CCN(c2ccccn2)CC1` as the compound, how does the inhibition read?
A: inconclusive: 43.4%

Q: For `Cn1ncc(C(=O)Nc2ccc(Cl)cc2)c1C(F)(F)F`, which inhibition is on record?
A: inconclusive: 64.8%

Q: With `CCN(CC)C(=O)CSc1nnc(-c2cccnc2)n1Cc1ccccc1` as the compound, how does the inhibition read?
A: inconclusive: 45.3%

Q: For `CCOC(=O)C1=C(NC(=O)c2ccc(Br)o2)Nc2ccccc2N=C1`, which inhibition is on record?
A: inconclusive: 42.1%

Q: With `O=C(Nc1ccc(S(=O)(=O)N2CCC(C(=O)NC3CCCCC3)CC2)cc1)c1ccco1` as the compound, how does the inhibition read?
A: inactive: -8.42%

Q: With `CCN(CC)S(=O)(=O)c1ccc(C(=O)Nc2cc(S(=O)(=O)N3CCOCC3)ccc2O)cc1` as the compound, how does the inhibition read?
A: inconclusive: 46%

Q: For `Cc1ccccc1Cn1nc(C)c(NC(=O)c2cc(-c3cccs3)on2)c1C`, which inhibition is on record?
A: inconclusive: 47.2%

Q: Which inhibition does the source give for `C[C@@H]1CN([C@H](C)CO)S(=O)(=O)c2ccc(C#C[C@@H](C)O)cc2O[C@H]1CN(C)Cc1ccc(-c2ccccc2)cc1` here?
A: inactive: 3.79%

Q: For `CCN(CC)S(=O)(=O)c1cccc(-c2nnc(SCc3ncc(-c4ccccc4)o3)n2C)c1`, which inhibition is on record?
A: inconclusive: 43.2%

Q: With `Cc1cc(C(F)F)n2ncc(C(=O)NCc3ccccc3)c2n1` as the compound, how does the inhibition read?
A: inactive: -4.93%

Q: Which inhibition does the source give for `COc1ccc(Cl)cc1NC(=O)CN1CCC(n2nnc3cc(C)ccc32)CC1` here?
A: inconclusive: 51.5%

Q: Which inhibition does the source give for `C[C@@H]1CN([C@@H](C)CO)C(=O)c2ccccc2-c2ccccc2CO[C@@H]1CN(C)C(=O)Nc1cccc(Cl)c1Cl` here?
A: inconclusive: 41.4%

Q: Which inhibition does the source give for `Cc1noc(C)c1S(=O)(=O)Nc1cccc2c1O[C@@H](CN(C)Cc1ccncc1)[C@@H](C)CN([C@@H](C)CO)C2=O` here?
A: inconclusive: 51%

Q: For `CN(c1cccc(NS(=O)(=O)c2cccs2)c1)S(C)(=O)=O`, which inhibition is on record?
A: active: 50.7%

Q: For `C/C(=N\Nc1nc(C)cc(=O)[nH]1)C1CC1`, which inhibition is on record?
A: inconclusive: 41%

Q: With `O=C(Nc1ccc(C(F)(F)F)cc1)N1C[C@@H]2N[C@H](C1)C2c1ccc(-c2ccccc2)cc1` (stereo not given in full) as the compound, how does the inhibition read?
A: inconclusive: 40.4% and inconclusive: 43.1%

Q: For `CNC[C@H]1OCCCC[C@@H](C)Oc2ccc(NS(=O)(=O)c3ccccc3)cc2C(=O)N([C@H](C)CO)C[C@@H]1C`, which inhibition is on record?
A: inconclusive: 48.7%

Q: With `CC(C)(C)c1ccc(-n2nc(C#N)c(Cl)cc2=O)cc1` as the compound, how does the inhibition read?
A: active: 82%

Q: For `Cc1nc2ccc(C(=O)Nc3ccccc3Cl)cc2s1`, which inhibition is on record?
A: inconclusive: 48.5%

Q: With `C/C(=N/NC(=O)CNC(=O)c1ccccn1)c1ccc([N+](=O)[O-])cc1` as the compound, how does the inhibition read?
A: inconclusive: 44.2%

Q: With `S=c1nc[nH]c2c1cnn2Cc1ccccc1` as the compound, how does the inhibition read?
A: active: 44.6%

Q: With `C[C@@H]1CN([C@H](C)CO)C(=O)c2cc(C#CC3CC3)cnc2O[C@H]1CN(C)C(=O)Nc1ccc(F)cc1` as the compound, how does the inhibition read?
A: inconclusive: 40.7%

Q: Which inhibition does the source give for `O=C(O)c1ccc2c(c1)OCCCO2` here?
A: inconclusive: 44.2%

Q: With `Cc1ccc(-c2cnc3c(c2)C(=O)N([C@@H](C)CO)C[C@@H](C)[C@H](CN(C)C)O3)cc1` as the compound, how does the inhibition read?
A: active: 109%

Q: Which inhibition does the source give for `C=CCn1c(SCC(=O)NCc2ccccc2)nnc1-c1ccccc1O` here?
A: inconclusive: 57.8%

Q: Which inhibition does the source give for `O=C(O)c1ccc(N=Nc2c(O)[nH]c3ccccc23)cc1` here?
A: active: 48.9%

Q: With `CC(=O)c1c(N2CCOCC2)nc(=O)n(-c2ccccc2)c1C` as the compound, how does the inhibition read?
A: inconclusive: 44.3%

Q: For `Cc1ccc(C)n1-c1ccc(-c2nnco2)cc1`, which inhibition is on record?
A: inconclusive: 52.4%

Q: For `CCn1c(C)c(C)c2cc(C(=O)NCCN3CCOCC3)ccc21`, which inhibition is on record?
A: inconclusive: 46.1%

Q: For `Cc1cc(N2CCN(C)CC2)ccc1NC(=O)c1c2c(nc3ccccc13)CCN(Cc1ccccc1)C2`, which inhibition is on record?
A: active: 69.4%

Q: Which inhibition does the source give for `C[C@@H]1CN([C@@H](C)CO)C(=O)CCCn2nncc2CO[C@@H]1CN(C)C(=O)NC1CCCCC1` here?
A: inconclusive: 51.5%

Q: With `O=C1/C(=C/c2ccco2)CCc2ccccc21` as the compound, how does the inhibition read?
A: inactive: 9.91%

Q: With `COC(=O)Cn1ccc(-c2ccc(Cl)cc2)c(C#N)c1=O` as the compound, how does the inhibition read?
A: inconclusive: 49.4%

Q: For `COc1cccc(N2CCN(c3ncnc4c3[nH]c3ccc(F)cc34)CC2C)c1` (stereo not given), which inhibition is on record?
A: active: 76.9%

Q: For `COc1cc(/C=C2\CC(C(C)(C)C)C/C(=C\c3cc(OC)c(OC)c(OC)c3)C2=O)cc(OC)c1OC` (stereo not given), which inhibition is on record?
A: inconclusive: 53.2%

Q: With `C[C@@H]1CN([C@H](C)CO)C(=O)c2cccc(NS(=O)(=O)c3ccc(Cl)cc3)c2O[C@H]1CN(C)C` as the compound, how does the inhibition read?
A: inactive: 3.43%

Q: For `C[C@H]1CN([C@@H](C)CO)C(=O)c2cccc(NS(=O)(=O)c3ccc(F)cc3)c2O[C@H]1CN(C)Cc1ccc(C(F)(F)F)cc1`, which inhibition is on record?
A: inconclusive: 55%

Q: For `Cc1ccc(S(=O)(=O)Nc2ccc3c(c2)C(=O)N([C@H](C)CO)C[C@@H](C)[C@@H](CN(C)C(=O)NC(C)C)OCCCC[C@H](C)O3)cc1`, which inhibition is on record?
A: inconclusive: 53.1%

Q: With `CCOCCCNC(=O)c1ccccc1SC` as the compound, how does the inhibition read?
A: inconclusive: 45.6%

Q: For `CCO[C@H]1OC(C(=O)Nc2ccccc2)=C[C@@H](c2csc3ccccc23)[C@@H]1CCCO`, which inhibition is on record?
A: inconclusive: 54.2%

Q: With `CCOc1ccc2nc(NCCCNC(=O)c3cc(OC)c(OC)c(OC)c3)c(C#N)cc2c1` as the compound, how does the inhibition read?
A: inconclusive: 41.8%

Q: Which inhibition does the source give for `Cn1nnnc1SC1CC(=O)N(c2ccccc2)C1=O` (stereo not given) here?
A: inconclusive: 43.7%

Q: Which inhibition does the source give for `Cc1ccc(S(=O)(=O)N(C)C[C@@H]2OCCCC[C@H](C)Oc3ccc(NS(C)(=O)=O)cc3C(=O)N([C@@H](C)CO)C[C@@H]2C)cc1` here?
A: inconclusive: 42.2%

Q: For `Cc1ccc(OCC(=O)N/N=C/c2cccn2C)cc1C`, which inhibition is on record?
A: inactive: -7.87%

Q: Which inhibition does the source give for `Cc1cc(N2CCN(C)CC2)nc2ccc(NC(=S)N3CCN(c4cccc(Cl)c4)CC3)cc12` here?
A: inconclusive: 47.6%

Q: For `CCn1cc([N+](=O)[O-])c(C(=O)NCc2ccc3c(c2)OCO3)n1`, which inhibition is on record?
A: active: 42.5%

Q: With `CCOC(=O)N1CCN(C(=O)c2cc(Cl)c(Cl)cc2C(=O)O)CC1` as the compound, how does the inhibition read?
A: active: 84.4%
